According to the supplement of paper PMC11348887:
Structures can show the parent of a compound that is named as a salt. The list shows a part of the results. No stated cut-off is given here; in the data, active = -2 or less and inactive = the rest. Single values are uncertain, as repeats are few or missing.

system: hPSC-derived cortical neurons (WA09); experiment: nuclei number (viability) z-score; higher = more surviving cells; conditions: 5 µM; treatment: days 7-14 after plating, readout day 21
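Further: nuclei counted from DAPI counterstain by automated high-content image analysis, four fields per well at ×20 in 384-well plates, with sequential b-score then z-score normalization.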

**Q.** For `c1cc(-c2cnn3cc(-c4ccc(N5CCNCC5)cc4)cnc23)c2cccnc2c1`, which “nuclei number (z-score)” value is on record?
**A.** active: -5.26

**Q.** Which “nuclei number (z-score)” value does the source give for `COc1ccc(/C=C\c2cc(OC)c(OC)c(OC)c2)cc1O` [Combretastatin A4] here?
**A.** active: -4.77

**Q.** With `CCCC1O[C@@H]2C[C@H]3[C@@H]4CCC5=CC(=O)C=C[C@]5(C)[C@H]4[C@@H](O)C[C@]3(C)[C@]2(C(=O)CO)O1` (stereo partly drawn) [Budesonide] as the molecule, how does the “nuclei number (z-score)” value read?
**A.** inactive: 0.723

**Q.** `CNC(=O)[C@@H](c1ccccc1)N1CCc2cc(OC)c(OC)cc2[C@@H]1CCc1ccc(C(F)(F)F)cc1` [Almorexant HCl] was tested. Which “nuclei number (z-score)” value did it give?
**A.** inactive: 0.0452

**Q.** For `COc1cc(C(C)=O)ccc1OCCCN1CCC(c2noc3cc(F)ccc23)CC1` [Iloperidone], which “nuclei number (z-score)” value is on record?
**A.** inactive: 0.171

**Q.** Which “nuclei number (z-score)” value does the source give for `CCOC(=O)[C@H](CCc1ccccc1)N[C@H]1CCCN2CCC[C@@H](C(=O)O)N2C1=O` [Cilazapril Monohydrate] here?
**A.** inactive: 0.446

**Q.** For `COc1ccc(C(=O)CC(=O)c2ccc(C(C)(C)C)cc2)cc1` [Avobenzone], which “nuclei number (z-score)” value is on record?
**A.** inactive: -0.237

**Q.** How did the “nuclei number (z-score)” value turn out when `COc1c(N2C[C@@H]3CCCN[C@@H]3C2)c(F)cc2c(=O)c(C(=O)O)cn(C3CC3)c12` [Moxifloxacin HCl] was run?
**A.** inactive: 0.0774

**Q.** How did the “nuclei number (z-score)” value turn out when `COc1ccc(C(=O)c2ccccc2)c(O)c1` [Oxybenzone] was run?
**A.** inactive: -0.606

**Q.** How did the “nuclei number (z-score)” value turn out when `CC1(C)CCC[C@]2(C)[C@H]3CC(=O)O[C@]3(C)CC[C@@H]12` [Sclareolide] was run?
**A.** inactive: 0.174

**Q.** `CC(=O)OCC(=O)[C@@]1(O)[C@H](C)C[C@H]2[C@@H]3CCC4=CC(=O)C=C[C@]4(C)[C@@]3(F)[C@@H](O)C[C@@]21C` [Dexamethasone Acetate] was tested. Which “nuclei number (z-score)” value did it give?
**A.** inactive: -0.986

**Q.** Which “nuclei number (z-score)” value does the source give for `COc1ncnc(NS(=O)(=O)c2ccc(N)cc2)c1OC` [Sulfadoxine] here?
**A.** inactive: -1.19

**Q.** `COc1ccc2[nH]c([S@@+]([O-])Cc3ncc(C)c(OC)c3C)nc2c1` [Esomeprazole Magnesium] was tested. Which “nuclei number (z-score)” value did it give?
**A.** inactive: 0.243

**Q.** Which “nuclei number (z-score)” value does the source give for `COc1ccc2[nH]c([S@@+]([O-])Cc3ncc(C)c(OC)c3C)nc2c1` [Esomeprazole Sodium] here?
**A.** inactive: 1.29

**Q.** Which “nuclei number (z-score)” value does the source give for `Cc1cc(N2CCOCC2)cc2[nH]c(-c3c(NC[C@@H](O)c4cccc(Cl)c4)cc[nH]c3=O)nc12` here?
**A.** inactive: 0.565

**Q.** Which “nuclei number (z-score)” value does the source give for `CC(C)NCC(O)c1ccc(O)c(O)c1` (stereo not drawn) [Isoprenaline HCl] here?
**A.** inactive: 0.0452

**Q.** With `CS(=O)(=O)N1CCN(Cc2cc3nc(-c4cccc5[nH]ncc45)nc(N4CCOCC4)c3s2)CC1` as the molecule, how does the “nuclei number (z-score)” value read?
**A.** inactive: 0.393

**Q.** Which “nuclei number (z-score)” value does the source give for `CC(C)(CCCCCC(O)CCCCCC(C)(C)C(=O)O)C(=O)O` here?
**A.** inactive: 0.28

**Q.** For `Nc1nc2c(ncn2COCCO)c(=O)[nH]1` [Aciclovir], which “nuclei number (z-score)” value is on record?
**A.** inactive: -0.979

**Q.** `O=S(=O)(c1ccccc1)N(CC(F)(F)F)c1ccc(C(O)(C(F)(F)F)C(F)(F)F)cc1` was tested. Which “nuclei number (z-score)” value did it give?
**A.** inactive: 0.155

**Q.** With `CC#CC(=O)Nc1ccc2ncnc(Nc3cccc(Br)c3)c2c1` as the molecule, how does the “nuclei number (z-score)” value read?
**A.** inactive: 0.038

**Q.** `O=C(O)c1ccc(N2C(=O)/C(=C\c3ccc(-c4ccc([N+](=O)[O-])cc4)o3)C=C2c2ccccc2)cc1` was tested. Which “nuclei number (z-score)” value did it give?
**A.** inactive: -0.0119

**Q.** How did the “nuclei number (z-score)” value turn out when `COc1cc(F)c(F)c(Nc2ccc(I)cc2F)c1NS(=O)(=O)C1(C[C@H](O)CO)CC1` [Refametinib (RDEA119_ Bay 86-9766)] was run?
**A.** inactive: 0.0391

**Q.** How did the “nuclei number (z-score)” value turn out when `CN[C@@H]1[C@@H](O)[C@@H](O[C@@H]2[C@@H](O)[C@H](O[C@H]3O[C@H](CN)[C@@H](O)[C@H](O)[C@H]3O)[C@@H](N)C[C@H]2NC(=O)[C@@H](O)CN)OC[C@]1(C)O` [Isepamicin Sulphate] was run?
**A.** inactive: 3.88

**Q.** How did the “nuclei number (z-score)” value turn out when `C#C[C@]1(O)CC[C@H]2[C@@H]3CCc4cc(O)ccc4[C@H]3CC[C@@]21C` [Ethinyl Estradiol] was run?
**A.** inactive: 0.023

**Q.** With `O=C(O)C(Cc1c[nH]c2ccccc12)N1C(=O)c2ccccc2C1=O` (stereo not drawn) as the molecule, how does the “nuclei number (z-score)” value read?
**A.** inactive: 0.0815

**Q.** For `CCOc1cc(CC(=O)N[C@@H](CC(C)C)c2ccccc2N2CCCCC2)ccc1C(=O)O` [Repaglinide], which “nuclei number (z-score)” value is on record?
**A.** inactive: 0.0855

**Q.** Which “nuclei number (z-score)” value does the source give for `CCOC(=O)C1=C(C)NC(C)=C(C(=O)OCC)C1c1ccccc1/C=C/C(=O)OC(C)(C)C` [Lacidipine] here?
**A.** active: -2.13

**Q.** With `C[C@@H]1O[C@@H](OC[C@H]2O[C@@H](Oc3c(-c4ccc(OCCO)c(OCCO)c4)oc4cc(OCCO)cc(O)c4c3=O)[C@H](O)[C@@H](O)[C@@H]2O)[C@H](O)[C@H](O)[C@H]1O` [Troxerutin] as the molecule, how does the “nuclei number (z-score)” value read?
**A.** inactive: -0.0501

**Q.** Which “nuclei number (z-score)” value does the source give for `CCN(CC)C(=O)/C(C#N)=C/c1cc(O)c(O)c([N+](=O)[O-])c1` [Entacapone] here?
**A.** inactive: 0.455

**Q.** How did the “nuclei number (z-score)” value turn out when `O=C1C(CC[S+]([O-])c2ccccc2)C(=O)N(c2ccccc2)N1c1ccccc1` (racemic) [(+/-)-Sulfinpyrazone] was run?
**A.** inactive: 2.79

**Q.** `CC1(C)O[C@@H]2C[C@H]3[C@@H]4CCC5=CC(=O)CC[C@]5(C)[C@@]4(F)[C@@H](O)C[C@]3(C)[C@]2(C(=O)CCl)O1` [Halcinonide] was tested. Which “nuclei number (z-score)” value did it give?
**A.** inactive: 0.743

**Q.** `C[C@]12C=CC(=O)C=C1CC[C@H]1[C@@H]3C[C@@H](O)[C@](O)(C(=O)CO)[C@@]3(C)C[C@H](O)[C@@]12F` [Triamcinolone] was tested. Which “nuclei number (z-score)” value did it give?
**A.** inactive: -0.169

**Q.** How did the “nuclei number (z-score)” value turn out when `N#Cc1ccc(COC[C@H]2O[C@@H](n3c(NCc4ccc(Cl)c(Cl)c4)nc4c(N)ncnc43)[C@H](O)[C@@H]2O)cc1` was run?
**A.** inactive: -0.525

**Q.** `CC(=O)O[C@H]1C[C@@H]2CC[C@@H]3[C@H](CC[C@@]4(C)[C@H]3C[C@H]([N+]3(C)CCCCC3)[C@@H]4OC(C)=O)[C@@]2(C)C[C@@H]1N1CCCCC1` [Vecuronium Bromide] was tested. Which “nuclei number (z-score)” value did it give?
**A.** inactive: 1.3

**Q.** Which “nuclei number (z-score)” value does the source give for `C[C@@H](O)[C@H]1C(=O)N2C(C(=O)O)=C(S[C@@H]3CN[C@H](C(=O)N(C)C)C3)[C@H](C)[C@H]12` [Meropenem] here?
**A.** inactive: 0.83

**Q.** Which “nuclei number (z-score)” value does the source give for `Cn1nnc(-c2ccc3c(c2)[nH]c2nc(Cc4ccccc4)nc(NC4CCC(N)CC4)c23)n1` (stereo not drawn) here?
**A.** active: -4.68

**Q.** For `CN(C)Cc1cccc(N=C(c2ccccc2)c2c(O)[nH]c3cc(C(=O)N(C)C)ccc23)c1`, which “nuclei number (z-score)” value is on record?
**A.** inactive: 1.04

**Q.** `CCCCCC(=O)O[C@]1(C(C)=O)CC[C@H]2[C@@H]3CCC4=CC(=O)CC[C@]4(C)[C@H]3CC[C@@]21C` [Hydroxyprogesterone caproate] was tested. Which “nuclei number (z-score)” value did it give?
**A.** inactive: 0.786

**Q.** Which “nuclei number (z-score)” value does the source give for `Cc1cc2c(C(N)=O)cccc2n1-c1nc2c(c(NCc3ccccc3)n1)COCC2` here?
**A.** active: -6.57

**Q.** For `Cc1coc2c1C(=O)C(=O)c1c-2ccc2c1CCCC2(C)C` [Tanshinone IIA], which “nuclei number (z-score)” value is on record?
**A.** inactive: 0.362

**Q.** `Cc1cn2cc(C(=O)N(C)CCO)cc(N[C@@H]3CCOc4cccc(C)c43)c2n1` was tested. Which “nuclei number (z-score)” value did it give?
**A.** inactive: -0.762

**Q.** Which “nuclei number (z-score)” value does the source give for `CC[C@H]1OC(=O)C[C@@H](O)[C@H](C)[C@@H](O[C@@H]2O[C@H](C)[C@@H](O)[C@H](N(C)C)[C@H]2O)[C@@H](CCN2C[C@H](C)C[C@H](C)C2)C[C@@H](C)C(=O)/C=C/C(C)=C/[C@@H]1CO[C@@H]1O[C@H](C)[C@@H](O)[C@@H](OC)[C@H]1OC` [Tilmicosin] here?
**A.** inactive: -0.0736

**Q.** Which “nuclei number (z-score)” value does the source give for `O=C1Cc2c([nH]c3ccc(Br)cc23)-c2ccccc2N1` [Kenpaullone] here?
**A.** inactive: -0.0269

**Q.** With `CCc1c(O)cc(O)c(C(=O)c2ccc(OCCN3CCOCC3)c(OC)c2)c1CC(=O)N(CCOC)CCOC` as the molecule, how does the “nuclei number (z-score)” value read?
**A.** active: -7.38

**Q.** With `CNCCCC12CCC(c3ccccc31)c1ccccc12` [Maprotiline HCl] as the molecule, how does the “nuclei number (z-score)” value read?
**A.** inactive: -0.615

**Q.** With `OC(c1cc(C(F)(F)F)nc2c(C(F)(F)F)cccc12)C1CCCCN1` (stereo not drawn) [Mefloquine HCl] as the molecule, how does the “nuclei number (z-score)” value read?
**A.** active: -3.73

**Q.** Which “nuclei number (z-score)” value does the source give for `COc1ccc2c(c1)c(CC(=O)N1CCOCC1)c(C)n2C(=O)c1ccc(Cl)cc1` here?
**A.** inactive: 0.801

**Q.** With `Cc1ccc(-n2sc(=O)n(Cc3ccc(F)cc3)c2=O)cc1` as the molecule, how does the “nuclei number (z-score)” value read?
**A.** inactive: 2.94

**Q.** How did the “nuclei number (z-score)” value turn out when `Cc1cc(Cl)ccc1OCCCC(=O)NO` [Droxinostat] was run?
**A.** inactive: -0.545

**Q.** How did the “nuclei number (z-score)” value turn out when `O=C(NCCN1CCOCC1)c1ccc(Cl)cc1` was run?
**A.** inactive: 0.196

**Q.** With `C/C(=C\C(=O)Nc1ccccc1C(=O)O)c1ccc2ccccc2c1` as the molecule, how does the “nuclei number (z-score)” value read?
**A.** inactive: 0.0308

**Q.** Which “nuclei number (z-score)” value does the source give for `O=C(c1ccc(/C=C/c2n[nH]c3ccccc23)cc1)N1CCNCC1` here?
**A.** inactive: -0.154

**Q.** `C[C@H](Cc1cc2c(c(C(N)=O)c1)N(CCCO)CC2)NCCOc1ccccc1OCC(F)(F)F` [Silodosin] was tested. Which “nuclei number (z-score)” value did it give?
**A.** inactive: -0.161

**Q.** How did the “nuclei number (z-score)” value turn out when `CN(C)CCOc1ccc(-c2nc(-c3ccncc3)c(-c3ccc4c(c3)CC/C4=N\O)[nH]2)cc1` was run?
**A.** active: -8.72

**Q.** For `CCCC(CCC)C(=O)O[C@H]1C[C@H]2CC[C@@H](C1)[N+]2(C)C` [Anisotropine Methylbromide], which “nuclei number (z-score)” value is on record?
**A.** inactive: -1.18

**Q.** With `Nc1ccc(C(=O)O)cc1` [4-Aminobenzoic acid] as the molecule, how does the “nuclei number (z-score)” value read?
**A.** inactive: 0.967

**Q.** With `O=C(O)C1=CO[C@@H](O[C@@H]2O[C@H](CO)[C@@H](O)[C@H](O)[C@H]2O)[C@@H]2C(CO)=CC[C@H]12` [Geniposidic acid] as the molecule, how does the “nuclei number (z-score)” value read?
**A.** inactive: 1.04

**Q.** For `CS(=O)(=O)c1ccc(-c2cnc(N)c(C(=O)Nc3ccccc3)n2)cc1`, which “nuclei number (z-score)” value is on record?
**A.** inactive: 0.496

**Q.** How did the “nuclei number (z-score)” value turn out when `NS(=O)(=O)c1cc(Cl)c(Cl)c(S(N)(=O)=O)c1` [Dichlorphenamide] was run?
**A.** inactive: 0.184

**Q.** `O=C(Oc1ccccc1C(=O)O)c1ccccc1O` [Sasapyrine] was tested. Which “nuclei number (z-score)” value did it give?
**A.** inactive: 1.01

**Q.** For `COc1c(C)c2c(c(O)c1C/C=C(\C)CCC(=O)O)C(=O)OC2` [Mycophenolic acid], which “nuclei number (z-score)” value is on record?
**A.** inactive: 0.584

**Q.** For `CC1(C)CC[C@]2(C(=O)O)CC[C@]3(C)C(=CC[C@@H]4[C@@]5(C)CC[C@H](O)C(C)(C)[C@@H]5CC[C@]43C)[C@@H]2C1` [Oleanolic Acid], which “nuclei number (z-score)” value is on record?
**A.** inactive: -0.196
